# PubChem BioAssay (Tox21)
# The shares of active, inactive and inconclusive entries below differ from those in the screen. For some of these results: Potencies of inconclusive entries are left out as doubtful fits. Activity calls are given as the source filed them. Unless noted, calls follow the shape of the dose curve; as a rule, active = well fitted curve in the direction sought with a large enough effect in the repeat runs; inconclusive = weak or mixed curves; inactive = no such curve, though single readings can be large; an effect the other way counts as inactive or inconclusive.
# Legend:
# [1] = qHTS assay for small molecule activators of the heat shock response signaling pathway (AID 743210; active = well fitted activation curve with a large enough effect in the signal ratio in the repeat runs, with a control signal flat, not every such curve was filed as active; inconclusive = weak or mixed curves; the % refers to the signal ratio; also: potency is read from the fitted curve at half-maximal effect; as to activation: % is scaled to controls: 0 for no effect and ±100 for the full control effect); conditions: HeLa HSE-bla reporter, beta-lactamase ratio, 5 h; activation: at 62.6 µM (top of the series) unless noted
# How it was run: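 Heat shock element–beta-lactamase HeLa reporter cells; qHTS with compounds for 5 h at 37 C; detection by FRET substrate fluorescence after 2.5 h at RT.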
# [2] = qHTS assay to identify small molecule agonists of the peroxisome proliferator-activated receptor delta (PPARd) signaling pathway - cell viability counter screen (AID 743211); conditions: PPARd-bla HEK293H viability, CellTiter-Glo luminescence, 17 h; activity change, negative = cytotoxicity: at 62.6 µM (top of the series); also: potency is read from the fitted curve at half-maximal effect; nearly all actives have a fitted effect of over 55% in size
# How it was run: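 PPARd-bla HEK293H cells (3000/well) were pre-incubated 5 h at 37 C, then exposed to compound for 17 h at 37 C. After 2 h with LiveBLAzer substrate, CellTiter-Glo was added to the same wells; luminescence read after 30 min at room temperature.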
# [3] = qHTS assay to identify small molecule antagonists of the peroxisome proliferator-activated receptor delta (PPARd) signaling pathway - cell viability counter screen (AID 743213); conditions: PPARd-bla HEK293H viability, CellTiter-Glo luminescence, 17 h; viability change, negative = cytotoxic: at 62 µM (top of the series) unless noted; also: nearly all actives have a fitted effect of over 50% in size; also: potency is read from the fitted curve at half-maximal effect
# How it was run: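 PPARd-bla HEK293H cells were treated with compounds plus agonist L165041 (300 nM final) for 17 h at 37 C. Viability was then read in the same wells by CellTiter-Glo luminescence after 30 min at room temperature.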
# [4] = qHTS assay to identify small molecule agonists of the AP-1 signaling pathway (AID 1159526; calls by dose curve; also: potency is read from the fitted curve at half-maximal effect); conditions: ME-180 (cervical carcinoma) AP-1-bla reporter, beta-lactamase FRET ratio, 5 h; activation: at 76.8 µM (top of the series) unless noted
# [5] = qHTS assay for small molecule agonists of the antioxidant response element (ARE) signaling pathway - cell viability counter screen (AID 743203; calls by dose curve; also: nearly all actives have a fitted effect of over 55% in size; also: potency is read from the fitted curve at half-maximal effect); conditions: ARE-bla HepG2 viability, CellTiter-Glo luminescence, 16 h; viability change, negative = cytotoxic: at 73.3 µM (top of the series)
# How it was run: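 Measured in the same wells as the beta-lactamase ARE reporter, this read-out is CellTiter-Glo luminescence from HepG2 ARE-bla cells given compounds for 16 hrs.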
# [6] = qHTS assay for small molecule activators of the heat shock response signaling pathway - cell viability counter screen (AID 743209); conditions: HSE-bla HeLa viability, CellTiter-Glo luminescence, 5 h; activity change, negative = cytotoxicity: at 62.6 µM (top of the series); also: % is scaled to controls: 0 for no effect and ±100 for the full control effect; nearly all actives have a fitted effect of over 50% in size
# How it was run: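 Same-well multiplex: after 2.5 h room-temperature incubation with LiveBLAzer B/G substrate and fluorescence reading, CellTiter-Glo reagent was added to HSE-bla HeLa cells that had received compound for 5 h at 37 C; luminescence read after 30 min.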
# [7] = target: Bile acid receptor (Homo sapiens) (UniProt Q96RI1); test: qHTS assay to identify small molecule antagonists of the farnesoid-X-receptor (FXR) signaling pathway (AID 743217; active = well fitted inhibition curve with a large enough effect in the signal ratio in the repeat runs, not every such curve was filed as active; inconclusive = weak or mixed curves, or effect the other way; inactive = no such curve, though single readings can be large or run the other way; the % refers to the signal ratio; also: % is scaled to controls: 0 for no effect and ±100 for the full control effect); conditions: HEK293T FXR-UAS-bla, beta-lactamase ratio, CDCA-stimulated, 16 h; activity change, negative = inhibition: at 62.6 µM (top of the series) unless noted
# Sequence of UniProt Q96RI1 (Q96RI1 whole entry, looked up): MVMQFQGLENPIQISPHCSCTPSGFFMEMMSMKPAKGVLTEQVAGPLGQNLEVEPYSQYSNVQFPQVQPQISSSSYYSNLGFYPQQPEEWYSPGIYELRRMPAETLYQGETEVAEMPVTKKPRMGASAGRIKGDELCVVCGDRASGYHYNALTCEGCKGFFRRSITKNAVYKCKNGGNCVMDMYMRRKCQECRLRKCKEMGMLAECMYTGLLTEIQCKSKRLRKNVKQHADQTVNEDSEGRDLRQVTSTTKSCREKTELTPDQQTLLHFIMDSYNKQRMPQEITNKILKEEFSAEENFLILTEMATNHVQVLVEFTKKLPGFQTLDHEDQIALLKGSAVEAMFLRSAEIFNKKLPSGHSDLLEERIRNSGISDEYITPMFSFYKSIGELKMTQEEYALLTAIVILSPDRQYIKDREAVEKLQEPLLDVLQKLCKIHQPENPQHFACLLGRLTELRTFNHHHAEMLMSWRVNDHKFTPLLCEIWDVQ
# How it was run: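 FRET fluorescence after 2 h room-temperature LiveBLAzer loading gives the readout. Prior step: FXR-bla HEK 293T cells, seeded and incubated 5 h, received test compounds plus 50 uM final CDCA for 16 h at 37 °C.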
# [8] = qHTS assay to identify small molecule agonists of the farnesoid-X-receptor (FXR) signaling pathway - cell viability counter screen (AID 743218); conditions: FXR-bla HEK293T viability, CellTiter-Glo luminescence, 16 h; viability change, negative = cytotoxic: at 62.6 µM (top of the series) unless noted; also: nearly all actives have a fitted effect of over 45% in size; also: potency is read from the fitted curve at half-maximal effect
# How it was run: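 Readout: CellTiter-Glo luminescence, 30 min RT, multiplexed after the FXR-bla FRET reading. HEK 293T FXR-UAS-bla cells received compound 5 h post-plating and were incubated 16 h at 37 C.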
# [9] = qHTS assay to identify small molecule antagonists of the vitamin D receptor (VDR) signaling pathway - cell viability counter screen (AID 743225); conditions: VDR-bla HEK293T viability, CellTiter-Glo luminescence, 16 h; viability change, negative = cytotoxic: at 61 µM (top of the series) unless noted; also: potency is read from the fitted curve at half-maximal effect; nearly all actives have a fitted effect of over 50% in size
# How it was run: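 VDR-UAS-bla HEK 293T cells were plated and incubated 4 h at 37C, then dosed with compound plus 3 nM (final) 1-alpha,25-dihydroxyvitamin D3 for 16 h. After the 2 h beta-lactamase read, viability in the same wells was read as CellTiter-Glo luminescence after 30 min at room temperature.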
# [10] = target: Peroxisome proliferator-activated receptor delta (Homo sapiens) (UniProt Q03181); test: qHTS assay to identify small molecule antagonists of the peroxisome proliferator-activated receptor delta (PPARd) signaling pathway (AID 743215; active = well fitted inhibition curve with a large enough effect in the signal ratio in the repeat runs, not every such curve was filed as active; inconclusive = weak or mixed curves, or effect the other way; inactive = no such curve, though single readings can be large or run the other way; the % refers to the signal ratio;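 also: cells stimulated with agonist L165041 at 300 nM final during compound exposure; % is scaled to controls: 0 for no effect and ±100 for the full control effect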); conditions: HEK293H PPARd-UAS-bla, beta-lactamase FRET ratio, antagonist, 17 h; ratio activity, negative = inhibition: at 62 µM (top of the series) unless noted
# Sequence of UniProt Q03181 (Q03181 whole entry, looked up): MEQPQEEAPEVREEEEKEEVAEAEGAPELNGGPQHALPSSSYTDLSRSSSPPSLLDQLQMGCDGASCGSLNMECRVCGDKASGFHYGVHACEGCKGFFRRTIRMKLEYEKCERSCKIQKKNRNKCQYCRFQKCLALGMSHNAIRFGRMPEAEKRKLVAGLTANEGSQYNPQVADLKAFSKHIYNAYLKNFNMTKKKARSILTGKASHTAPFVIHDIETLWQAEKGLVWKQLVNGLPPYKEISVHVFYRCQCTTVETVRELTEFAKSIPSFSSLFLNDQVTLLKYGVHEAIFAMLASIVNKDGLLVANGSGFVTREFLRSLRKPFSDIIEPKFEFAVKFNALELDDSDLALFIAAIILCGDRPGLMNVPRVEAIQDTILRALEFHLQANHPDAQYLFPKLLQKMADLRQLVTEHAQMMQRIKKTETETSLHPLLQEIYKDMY
# How it was run: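 Fluorescence from cleaved LiveBLAzer B/G FRET substrate (2 h, room temperature) reports PPARd-driven beta-lactamase in HEK293H UAS-bla cells. Cells had been treated 17 h at 37 C with compound plus 300 nM final L165041.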
# [11] = target: Vitamin D3 receptor (Homo sapiens) (UniProt P11473); test: qHTS assay to identify small molecule agonists of the vitamin D receptor (VDR) signaling pathway (AID 743222; calls by dose curve; also: potency is read from the fitted curve at half-maximal effect); conditions: HEK293T VDR-UAS-bla, beta-lactamase FRET ratio, 16 h; activation: at 63.5 µM (top of the series) unless noted
# Sequence of UniProt P11473 (P11473 whole entry, looked up): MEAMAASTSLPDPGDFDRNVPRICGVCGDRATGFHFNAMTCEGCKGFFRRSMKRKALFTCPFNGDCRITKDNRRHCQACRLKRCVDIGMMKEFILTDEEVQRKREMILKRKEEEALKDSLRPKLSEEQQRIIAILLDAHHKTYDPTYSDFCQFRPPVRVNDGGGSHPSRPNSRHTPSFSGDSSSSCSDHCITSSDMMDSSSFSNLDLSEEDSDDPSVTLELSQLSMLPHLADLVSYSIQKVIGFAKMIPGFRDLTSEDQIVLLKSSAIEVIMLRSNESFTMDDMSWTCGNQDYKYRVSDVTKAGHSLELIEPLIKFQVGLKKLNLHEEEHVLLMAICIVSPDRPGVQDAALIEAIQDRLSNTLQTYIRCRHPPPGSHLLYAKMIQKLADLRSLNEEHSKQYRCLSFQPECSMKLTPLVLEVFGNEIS
# How it was run: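 Following 4 h attachment at 37C, VDR-bla cells (2,000 per well) received DMSO-dissolved compounds or controls. After 16 h incubation, LiveBLAzer B/G FRET substrate was added and fluorescence read 2 h later at room temperature.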
# [12] = target: Vitamin D3 receptor (Homo sapiens) (UniProt P11473); test: qHTS assay to identify small molecule antagonists of the vitamin D receptor (VDR) signaling pathway (AID 743223; active = well fitted inhibition curve with a large enough effect in the signal ratio in the repeat runs, not every such curve was filed as active; inconclusive = weak or mixed curves, or effect the other way; inactive = no such curve, though single readings can be large or run the other way; the % refers to the signal ratio; also: % is scaled to controls: 0 for no effect and ±100 for the full control effect); conditions: VDR-UAS-bla HEK293T, beta-lactamase FRET ratio, 16 h
# How it was run: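 VDR-bla cells were treated with compound plus 3 nM final 1alpha,25-dihydroxyvitamin D3 for 16 h at 37C. Beta-lactamase reporter read by B/G FRET substrate fluorescence after 2 h at room temperature. qHTS format.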
# [13] = qHTS assay to identify small molecule agonists of the vitamin D receptor (VDR) signaling pathway - cell viability counter screen (AID 743224); conditions: VDR-bla HEK293T viability, CellTiter-Glo luminescence, 16 h; activity change, negative = cytotoxicity: at 62.6 µM (top of the series); also: potency is read from the fitted curve at half-maximal effect; nearly all actives have a fitted effect of over 50% in size
# How it was run: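 In parallel with the bla FRET readout, cytotoxicity toward VDR-bla cells after 16 h compound exposure was assessed by CellTiter-Glo, with luminescence recorded after a 30 min room-temperature incubation.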
# [14] = qHTS assay to identify small molecule antagonists of the farnesoid-X-receptor (FXR) signaling pathway - cell viability counter screen (AID 743221; active = well fitted cell-killing curve with a large enough effect in the repeat runs, not every such curve was filed as active; inconclusive = weak or mixed curves, or effect the other way; inactive = no such curve, though single readings can be large or run the other way); conditions: FXR-bla HEK293T viability, CellTiter-Glo luminescence, 16 h; activity change, negative = cytotoxicity: at 62.6 µM (top of the series) unless noted
# How it was run: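 GeneBLAzer FXR-UAS-bla HEK 293T cells, compound plus chenodeoxycholic acid (50 uM final), 16 h at 37 C. CellTiter-Glo added to the same wells after the beta-lactamase read; luminescence read after 30 min at room temperature as viability.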
# Tags tell the direction and shape of the fitted curve or compound fluorescence and quenching.
compound,measurement,setting,value
CC(C)NC[C@@H](O)COc1cccc2ccccc12,Potency,[1],inactive
same,Potency,[2],"inconclusive [cytotoxic, partial curve, poor fit]"
same,Potency,[3],"inconclusive [cytotoxic, partial curve, poor fit]"
same,Potency,[4],inconclusive [activator]
CC1(C)[C@@H]2CC[C@]3(C2)[C@@H]1C(=O)CCC3(C)C,Potency,[5],inactive
same,Potency,[1],inactive
same,activation,[4],inconclusive: 7.41%
O=C1OC(=O)c2ccccc21,Potency,[6],inactive
same,Potency,[3],inactive
same,Potency,[7],inactive
same,Potency,[8],"inconclusive [rising, full curve]"
same,Potency,[9],"inconclusive [rising, full curve, poor fit]"
same,Potency,[4],inactive
CCC(C)(CCCC(C)C)OC(C)=O (centres undefined),Potency,[1],"inconclusive [rising, partial curve, poor fit]"
same,Potency,[10],inactive
same,Potency,[8],inactive
same,Potency,[11],inactive
same,Potency,[4],inactive
NNc1nncc2ccccc12,Potency,[5],"inconclusive [cytotoxic, single point]"
same,Potency,[1],inconclusive [activator]
same,Potency,[2],"inconclusive [cytotoxic, partial curve, poor fit]"
same,Potency,[3],"inconclusive [cytotoxic, partial curve]"
same,Potency,[8],"inconclusive [cytotoxic, partial curve]"
same,Potency,[11],"inconclusive [rising, single point]"
same,"activity change, negative = inhibition","[12]; activity change, negative = inhibition: at 61 µM (top of the series) unless noted",inconclusive: -50.3%
same,"activity change, negative = inhibition",[12]; at 28.5 µM (top of the series),inactive: 1.52%
same,Potency,[13],"inconclusive [cytotoxic, single point]"
same,Potency,[4],"inconclusive [falling, partial curve, poor fit]"
C[C@@H](N)C(=O)O,Potency,[1],"inconclusive [activator, single point]"
same,Potency,[2],"inconclusive [cytotoxic, single point]"
same,"ratio activity, negative = inhibition",[10],inconclusive: -28.4%
same,activation,[11],inconclusive: -22.9%
same,Potency,[13],"inconclusive [cytotoxic, single point]"
same,Potency,[4],"inconclusive [activator, single point]"
CC1(C)C(=O)NC(=O)N1CO,Potency,[1],inactive
same,Potency,[3],inactive
same,Potency,[8],"inconclusive [rising, partial curve, poor fit]"
same,Potency,[4],inactive
Cc1ccc(Cl)c(OCC(O)CNC(C)(C)C)c1 (centres undefined),Potency,[5],inactive
same,Potency,[3],"inconclusive [cytotoxic, full curve, poor fit]"
same,Potency,[13],"inconclusive [cytotoxic, partial curve, poor fit]"
same,Potency,[4],"inconclusive [activator, partial curve, poor fit]"
Cc1cccc(C)c1[N+](=O)[O-],activation,[1],inconclusive: 18.4%
same,Potency,[2],"inconclusive [cytotoxic, single point]"
same,Potency,[3],"inconclusive [cytotoxic, single point]"
same,Potency,[14],"inconclusive [falling, full curve, poor fit]"
same,Potency,[11],"inconclusive [rising, partial curve, poor fit]"
same,Potency,[13],"inconclusive [cytotoxic, single point]"
same,Potency,[4],"inconclusive [falling, partial curve, poor fit]"
